Results from patent US11178870B2 (priority 2017, dated 2021).

Columns and labels:
Type in all cases: in vivo
[1] = test system: Botrytis cinerea; assay: Test Example B: Gray mold on tomato; conditions: class of control value, Table 7
[2] = test system: Alternaia brassicicola; assay: Test Example C: Alternaria sooty spot on cabbage; conditions: class of control value, Table 7
[3] = test system: Blumeria graminis f. sp. hordei; assay: Test Example D: Powdery mildew on barley; conditions: class of control value, Table 7
[4] = test system: Puccinia recondita; assay: Test Example E: Brown rust on wheat; conditions: class of control value, Table 7
[5] = test system: Plasmopara viticola; assay: Test Example G: Downy mildew on vine; conditions: 250 ppm spray, 2.5 ml/pot; investigated 7 to 10 days after inoculation

Structure (SMILES) | Test B control value (gray mold on tomato) [1] | Test C control value (Alternaria sooty spot on cabbage) [2] | Test D control value (powdery mildew on barley) [3] | Test E control value (brown rust on wheat) [4] | Test G control value (downy mildew on vine) [5]
O=c1ccc(-c2sc(Cl)cc2Br)c(-c2c(F)cccc2F)n1CC(F)F [Compound 421] | H (H shows the control value more than 50%) | H (H shows the control value more than 50%) | H (H shows the control value more than 50%) | H (H shows the control value more than 50%) | L (L shows the control value of 50% or less)
O=c1c(Br)cc(-c2sc(Br)cc2Br)c(-c2c(F)cccc2F)n1CC(F)F [Compound 422] | L (L shows the control value of 50% or less) | H (H shows the control value more than 50%) | H (H shows the control value more than 50%) | H (H shows the control value more than 50%) | L (L shows the control value of 50% or less)
O=c1c(Br)cc(-c2sccc2Br)c(-c2c(F)cccc2F)n1CC(F)F [Compound 423] | H (H shows the control value more than 50%) | H (H shows the control value more than 50%) | H (H shows the control value more than 50%) | H (H shows the control value more than 50%) | H (H shows the control value more than 50%)
Cc1sccc1-c1ccc(=O)n(CC(F)F)c1-c1c(F)cccc1F [Compound 424] | H (H shows the control value more than 50%) | H (H shows the control value more than 50%) | H (H shows the control value more than 50%) | H (H shows the control value more than 50%) | H (H shows the control value more than 50%)
O=c1c(Cl)cc(-n2cc(F)cn2)c(-c2ccc(F)cc2Cl)n1CC(F)F [Compound 426] | H (H shows the control value more than 50%) | H (H shows the control value more than 50%) | H (H shows the control value more than 50%) | H (H shows the control value more than 50%) | L (L shows the control value of 50% or less)
CCn1c(-c2ccc(OC)cc2Cl)c(-n2cc(Cl)cn2)cc(Br)c1=O [Compound 427] | H (H shows the control value more than 50%) | H (H shows the control value more than 50%) | L (L shows the control value of 50% or less) | H (H shows the control value more than 50%) | L (L shows the control value of 50% or less)
CCn1c(-c2ccc(OC)cc2Cl)c(-n2cc(Cl)cn2)ccc1=O [Compound 428] | L (L shows the control value of 50% or less) | H (H shows the control value more than 50%) | H (H shows the control value more than 50%) | H (H shows the control value more than 50%) | L (L shows the control value of 50% or less)
Cn1c(-c2c(F)cccc2F)c(-c2ccsc2Br)cc(Cl)c1=O [Compound 429] | H (H shows the control value more than 50%) | H (H shows the control value more than 50%) | L (L shows the control value of 50% or less) | H (H shows the control value more than 50%) | L (L shows the control value of 50% or less)
Cc1sccc1-c1ccc(=O)n(C)c1-c1c(F)cccc1F [Compound 431] | H (H shows the control value more than 50%) | H (H shows the control value more than 50%) | L (L shows the control value of 50% or less) | H (H shows the control value more than 50%) | L (L shows the control value of 50% or less)
O=c1c(Br)cc(-c2sc(Br)cc2Cl)c(-c2c(F)cccc2F)n1CC(F)F [Compound 432] | H (H shows the control value more than 50%) | H (H shows the control value more than 50%) | H (H shows the control value more than 50%) | L (L shows the control value of 50% or less) | L (L shows the control value of 50% or less)
O=c1c(Br)cc(-c2sccc2Cl)c(-c2c(F)cccc2F)n1CC(F)F [Compound 433] | H (H shows the control value more than 50%) | H (H shows the control value more than 50%) | H (H shows the control value more than 50%) | H (H shows the control value more than 50%) | L (L shows the control value of 50% or less)
O=c1ccc(-c2sc(Br)cc2Cl)c(-c2c(F)cccc2F)n1CC(F)F [Compound 434] | L (L shows the control value of 50% or less) | L (L shows the control value of 50% or less) | L (L shows the control value of 50% or less) | L (L shows the control value of 50% or less) | L (L shows the control value of 50% or less)
Cn1c(-c2c(F)cccc2F)c(-c2sccc2Cl)ccc1=O [Compound 435] | H (H shows the control value more than 50%) | H (H shows the control value more than 50%) | L (L shows the control value of 50% or less) | H (H shows the control value more than 50%) | H (H shows the control value more than 50%)
O=c1c(Cl)cc(-c2sc(Cl)cc2Cl)c(-c2c(F)cccc2F)n1CC(F)F [Compound 436] | H (H shows the control value more than 50%) | H (H shows the control value more than 50%) | H (H shows the control value more than 50%) | H (H shows the control value more than 50%) | H (H shows the control value more than 50%)
O=c1c(Cl)cc(-c2sccc2Cl)c(-c2c(F)cccc2F)n1CC(F)F [Compound 437] | H (H shows the control value more than 50%) | H (H shows the control value more than 50%) | H (H shows the control value more than 50%) | H (H shows the control value more than 50%) | L (L shows the control value of 50% or less)
O=c1ccc(-c2sc(Cl)cc2Cl)c(-c2c(F)cccc2F)n1CC(F)F [Compound 438] | L (L shows the control value of 50% or less) | H (H shows the control value more than 50%) | H (H shows the control value more than 50%) | H (H shows the control value more than 50%) | L (L shows the control value of 50% or less)
Cn1c(-c2c(F)cccc2F)c(-c2sccc2Cl)cc(Cl)c1=O [Compound 439] | H (H shows the control value more than 50%) | H (H shows the control value more than 50%) | H (H shows the control value more than 50%) | H (H shows the control value more than 50%) | H (H shows the control value more than 50%)
Cn1c(-c2c(F)cccc2F)c(-c2sc(Cl)cc2Cl)cc(Cl)c1=O [Compound 440] | L (L shows the control value of 50% or less) | H (H shows the control value more than 50%) | L (L shows the control value of 50% or less) | L (L shows the control value of 50% or less) | H (H shows the control value more than 50%)
